Measured values: the supplement of paper PMC11417369
± gives the standard deviation of the averaged measurements. This is one part of the list.

tested on: PfAP2-LT AP2 domain (GST-tagged); assay: gcPBM binding intensity (ln(normalized median fluorescence intensity)); higher = stronger DNA binding
In short: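 After 1 h on an Agilent 4 × 180k array of primer-extended double-stranded 36-bp intergenic genomic probes and negative controls, bound GST-tagged P. falciparum DNA-binding domains were detected with Alexa488 anti-GST antibody and scanned at 488 nm. The domains had been expressed in E. coli, and binding took place in 1× PBS with 1% milk, 0.2 mg/ml BSA, 0.5% salmon testes DNA and 0.03% Triton X-100. Binding intensity is the highest Masliner-normalised natural-log median intensity across replicate spots of either probe orientation.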

| Sequence | gcPBM binding intensity (ln) |
| --- | --- |
| AAATGTAAATTTATCCGTACATATATATATTTATAT [XGTACX_site7024] | 8.72 ± 0.47 |
| AAAAAAAAAAAAATATATATATATATATATATATAT [GTGCAC_negctrl_site212] | 9.7 ± 0.13 |
| AAAAAAAAAAATTAAAGTACAAAAATATTAAAAATA [XGTACX_site6517] | 8.46 ± 0.61 |
| TGCATTTATATCTTCACACATATATATATATATATA [CACACA_site4516] | 9.515 ± 0.05 |
| ATGTAATAAAATAATTGTACAATGTAACTAATTTTT [XGTACX_site2871] | 8.93 ± 0.45 |
| ATTAAAAATTCAATTGCACACGCACATATTTTAATA [CACACA_site8618] | 9.03 ± 0.4 |
| ATATGTATATATACATGTACATATTTTTCCTTTCTT [XGTACX_site149] | 8.78 ± 0.47 |
| ATAAACATGGAAATGTATTAAAAGCAAGTATATAAA [XGTACX_negctrl_site516] | 8.85 ± 0.57 |
| TAAATTATAACGTGCACACATATTTAAAATGAAATG [CACACA_site2820] | 9.05 ± 0.38 |
| TTGGGTGCATATATTTGTACACATTATTTCTATTTT [XGTACX_site3688] | 8.74 ± 0.5 |
| TGTTGTTACAGATATACACACATATATATATTATAT [CACACA_site5342] | 9.09 ± 0.38 |
| AAAAAAAATTTCTTCACACATAAATAAATAAATAAA [CACACA_site4841] | 8.3 ± 0.47 |
| TTTTTTTTTTTTTCAAGTACATATATATATATATAA [XGTACX_site2098] | 8.38 ± 0.25 |
| TTTTTATATGTTAAGTGTACGTTTACATTTTATACT [XGTACX_site3485] | 8.87 ± 0.45 |
| ACATAAATAAATTAATGTACATATATATTTGTATAT [XGTACX_site3160] | 8.77 ± 0.47 |
| TATATATATATATATACACACACACCCATATATATA [CACACA_site8812] | 9.85 ± 0.18 |
| TTTCTTAAAATATAAAGTACTAAAATGAAAATATAT [XGTACX_site2173] | 8.4 ± 0.41 |
| AAATAAAGAAATATATGTACATATATATATATATAT [XGTACX_site5131] | 9.64 ± 0.25 |
| TTTATTCTCCACACCCGTACACATTTTTTTTGCATA [XGTACX_site5615] | 9.04 ± 0.52 |
| AAAAAAAAAAAAAACACACACACACGCAGATATATA [CACACA_site6672] | 9.96 ± 0.27 |
| CATAATATTTGTGAAAGTACTTATTTTACAATAGGG [XGTACX_site5004] | 8.59 ± 0.38 |
| ATTATAGACAACTCTTTTTCTAAACTATTTTATTTT [CACACA_negctrl_site1754] | 8.89 ± 0.61 |

| Sequence | gcPBM binding intensity (ln) |
| --- | --- |
| CTTCTTTTGTGATAAAGTACAAATATTTTGAAATAT [XGTACX_site1156] | 8.29 ± 0.4 |
| ATAAATAAATAAATAAATATATATATGAAATAATGT [TGCATGCA_negctrl_site12] | 8.86 ± 0.35 |
| TTTTCTATAAGATTTGCACACAACTTATTCTATTAA [CACACA_site3752] | 9.2 ± 0.37 |
| AAAAAATATAAAACGAGTACATATATAATAAGCAAA [XGTACX_site1360] | 9.03 ± 0.47 |
| ATTTCTTTTACATTTACATGCAATGCTCTATAGATA [TGCATGCA_site62] | 8.98 ± 0.45 |
| AAAGAATTTGCATATACACACAAAAAAATAAATACA [CACACA_site4373] | 9.12 ± 0.47 |
| ATTTTTTTTATGTATTATGCTTTTATATCCTTCATA [CACACA_negctrl_site1244] | 8.93 ± 0.49 |
| AATATAATATAATGCACACATAAAAAAAAAAAAATC [CACACA_site1303] | 9.21 ± 0.41 |
| AATGCACTATTTAAAAGTACACATAAGAAAAGCATA [XGTACX_site1739] | 8.88 ± 0.43 |
| GCTAAACAATAGTTTGCACACAATTTAAATATATAT [CACACA_site193] | 9.04 ± 0.35 |
| AGTATAAATATATTATGTACATATATATTATACTTA [XGTACX_site2623] | 8.65 ± 0.35 |
| TTATATACATTAAATGAACACACATAAATAAATTAC [CACACA_site8927] | 8.88 ± 0.38 |
| ATATATATATACATATGTACATATATATTTATACAT [XGTACX_site2463] | 9.1 ± 0.3 |
| TACACAGACGGACACACACACACACTAGAAAAAAAA [CACACA_site4435] | 10.1 ± 0.59 |
| TTGTTAATAAAAATATTGGAAAGTTTATAAAATTTT [CACACA_negctrl_site1487] | 8.13 ± 0.44 |
| TTATTTTCTTTTTCTTGTACACACATAATATGGATG [XGTACX_site1481] | 9.17 ± 0.54 |
| TATTCCAAAAATGTGTGTACATAAATACAATATTAT [XGTACX_site2653] | 9.04 ± 0.35 |
| AAAAAGAAGAATAATACACACAAATTATTTTATATA [CACACA_site1919] | 8.89 ± 0.57 |
| TATAATAAATGGACGGTGCGACATGACCATATGTGT [GTGCAC_site9476] | 9.13 ± 0.36 |
| CTAAAAGAACATGTGTGTACTTATGTTCTCTTTTTT [XGTACX_site5983] | 8.85 ± 0.44 |
| GACACCCATAAATATACACACGCACAACACAAAATA [CACACA_site8944] | 9.46 ± 0.38 |
| CTTACCAAAAAACACACACACACAAAATATATAAAT [CACACA_site1870] | 10.1 ± 0.24 |

| Sequence | gcPBM binding intensity (ln) |
| --- | --- |
| TTATTTTTTAGTAGTACACACTTTTTGTACCTTTTA [CACACA_site4503] | 8.93 ± 0.49 |
| TGTAGATTTTGTAACACACACATATAAATACAGATA [CACACA_site5343] | 9.24 ± 0.34 |
| TAAGGGATATGTATATGTACATACAAATATATATAA [XGTACX_site2892] | 8.83 ± 0.44 |
| AAATGTAATAAATATACACACACAAATATATATATA [CACACA_site8754] | 9.58 ± 0.24 |
| TTTGCTTCGATATATTCACACATTTTTTTTCTTATT [CACACA_site4499] | 8.91 ± 0.46 |
| AATTTCATTTTTAGAAGTACATTTATATTAAAAATC [XGTACX_site2888] | 8.11 ± 0.39 |
| TATATATATATATATATATATATATATATATATATT [CACACA_negctrl_site1440] | 9.45 ± 0.014 |
| CATTGACCATTAATTTGTACACAAGGGGAAATGAGG [XGTACX_site1756] | 8.79 ± 0.43 |
| TCTTTCTGCTCTTATACACACAAATAAAGATTTTTT [CACACA_site2700] | 8.79 ± 0.5 |
| ATGAAATTTTCATATTGTACTATTAAAAATATATTT [XGTACX_site1989] | 8.35 ± 0.42 |
| TATAATCCATAAGAAGCACACACATATATATATATT [CACACA_site8394] | 9.41 ± 0.3 |
| AATAAATATTAAATGACAAAAAAAAAAAAAAAAGGG [XGTACX_negctrl_site15] | 8.76 ± 0.64 |
| TTAAGATGCATAAATACATGCAAAGTAAATAATTCT [TGCATGCA_site517] | 8.97 ± 0.41 |
| TTAGCAGGACGTTTGGTGCACGTACTGTTTTTCTTT [GTGCAC_site9856] | 8.81 ± 0.39 |
| ATTATAAGAATTAAAAGAAACAAAATTTTAATTATA [CACACA_negctrl_site610] | 8.3 ± 0.46 |
| TAGCCAAAAGGATATGCACACACACCCACATATATA [CACACA_site8684] | 9.71 ± 0.29 |
| TAAGATCCTTAAAACGCATGCAGTATTTTTATTTCT [TGCATGCA_site532] | 8.73 ± 0.38 |
| CATATAATTATTTTCACACATATAACTACATCTATA [CACACA_site5915] | 8.82 ± 0.43 |
| ATATAAATAAAAAAAAGTACATAATATATAAAAATA [XGTACX_site3065] | 8.8 ± 0.59 |
| CTTTTACGTTTAGGATGTACATTTAAAAAAAAAGAA [XGTACX_site8032] | 8.34 ± 0.48 |
| AAAAAACTTTTAAGCACACACATAGATAATATAGAT [CACACA_site6835] | 9.27 ± 0.47 |
| TTCCCTTTTGTAAAATGTACATATATATTTAAACAA [XGTACX_site3263] | 8.38 ± 0.41 |

| Sequence | gcPBM binding intensity (ln) |
| --- | --- |
| TTTTTATTAAAATGTATTTTAGGAAAAAACAAAAAA [XGTACX_negctrl_site437] | 8.04 ± 0.52 |
| TAAGTTCCCTTTGAATGTACATATAATGAAAAGAAA [XGTACX_site826] | 8.52 ± 0.42 |
| AATATTAACAATCGCACACATATTATTTTTCCAAAA [CACACA_site4982] | 9.02 ± 0.45 |
| TGAAATGGAAACAACTGTACAAAATAAATATGATAT [XGTACX_site1311] | 9.02 ± 0.51 |
| ATATAAATATAGCATACACACAAAAAAATAAAATAA [CACACA_site2333] | 9.06 ± 0.54 |
| CAACATTTGAAACACACACACATACAAACAAACAAA [CACACA_site3306] | 9.85 ± 0.47 |
| TTTTTTTTTTTTGTCACACATATTTGTATTAATCAT [CACACA_site5235] | 8.79 ± 0.59 |
| AAATGAAATAAATGTAGTACACATATACAATATATA [XGTACX_site6951] | 8.93 ± 0.45 |
| TGTATATCATATATTTGTACTCAATTAATATAAACA [XGTACX_site3970] | 8.48 ± 0.35 |
| TATTTTTATACAATTTAACACGGGTTATAAAATGTA [CACACA_negctrl_site566] | 8.49 ± 0.34 |
| TATGGAAGAAAATATACACACAAAAAAAAAAAATGT [CACACA_site1486] | 9.24 ± 0.49 |
| AATTTATTATTTGTATGTACTCATATGATTCACTTA [XGTACX_site2797] | 8.89 ± 0.44 |
| ATACTTTTATTTTTGGTGCATATATCATGTAGACGT | 8.96 ± 0.37 |
| TATTAATTTTTAAACATAATTTTTCGTATAATATAT [CACACA_negctrl_site762] | 8.33 ± 0.37 |
| GAGATAAAATAAAACACACACATATATTTATATAAC [CACACA_site7098] | 9.43 ± 0.43 |
| TTTACTTTCTTATTTTCACACATTTAAAAAAAAATT [CACACA_site5949] | 8.36 ± 0.47 |
| ACATCTAATTTGTATACACACAATAATAAATGGTGA [CACACA_site824] | 8.87 ± 0.4 |
| TTGTATATATGACTTTTTTATATTTCAATTTTGTGC [CACACA_negctrl_site296] | 8.71 ± 0.49 |
| TATATATATTTATAATGTACATATTTTTTTTTATTT [XGTACX_site4761] | 8.71 ± 0.49 |
| AAAAAAAATTAGGAAACATGCATGTCCCGATAAATA [TGCATGCA_site149] | 8.89 ± 0.36 |
| AGATATATTATTAGGTGTACTATAAAATAAATTCAC [XGTACX_site221] | 8.63 ± 0.38 |
| CGAACAAACAAATAAACACACAAAAAAAGATATATA [CACACA_site6944] | 9.1 ± 0.57 |
